Experimental data taken from article PMC4250081.
Where a chain is given by its changes, count along the chain named. These are yes or no findings as the source states them, for the method shown. In cells and extracts the contact can be indirect. Some entries that bind do so weakly or less than the wild type.

Amino acid sequences for entries named in this document (tags omitted).
UniProt P24534: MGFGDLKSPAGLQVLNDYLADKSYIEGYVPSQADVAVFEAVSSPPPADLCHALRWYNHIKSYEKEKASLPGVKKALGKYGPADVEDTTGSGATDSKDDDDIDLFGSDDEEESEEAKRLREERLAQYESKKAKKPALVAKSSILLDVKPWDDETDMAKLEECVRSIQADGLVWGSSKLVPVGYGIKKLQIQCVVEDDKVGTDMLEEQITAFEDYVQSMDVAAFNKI
UniProt P68104: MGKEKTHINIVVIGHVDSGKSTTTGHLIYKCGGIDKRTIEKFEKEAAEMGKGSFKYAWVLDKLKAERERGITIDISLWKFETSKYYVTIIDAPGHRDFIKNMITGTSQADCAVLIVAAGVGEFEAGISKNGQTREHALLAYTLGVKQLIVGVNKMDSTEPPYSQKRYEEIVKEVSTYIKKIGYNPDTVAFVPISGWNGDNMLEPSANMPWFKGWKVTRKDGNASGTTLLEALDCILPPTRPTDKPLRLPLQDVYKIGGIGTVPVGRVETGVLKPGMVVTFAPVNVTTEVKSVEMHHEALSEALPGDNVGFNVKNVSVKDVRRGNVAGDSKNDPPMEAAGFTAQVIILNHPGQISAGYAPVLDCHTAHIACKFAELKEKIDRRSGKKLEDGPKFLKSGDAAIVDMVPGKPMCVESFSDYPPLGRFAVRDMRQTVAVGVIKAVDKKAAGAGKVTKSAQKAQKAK
UniProt Q05639: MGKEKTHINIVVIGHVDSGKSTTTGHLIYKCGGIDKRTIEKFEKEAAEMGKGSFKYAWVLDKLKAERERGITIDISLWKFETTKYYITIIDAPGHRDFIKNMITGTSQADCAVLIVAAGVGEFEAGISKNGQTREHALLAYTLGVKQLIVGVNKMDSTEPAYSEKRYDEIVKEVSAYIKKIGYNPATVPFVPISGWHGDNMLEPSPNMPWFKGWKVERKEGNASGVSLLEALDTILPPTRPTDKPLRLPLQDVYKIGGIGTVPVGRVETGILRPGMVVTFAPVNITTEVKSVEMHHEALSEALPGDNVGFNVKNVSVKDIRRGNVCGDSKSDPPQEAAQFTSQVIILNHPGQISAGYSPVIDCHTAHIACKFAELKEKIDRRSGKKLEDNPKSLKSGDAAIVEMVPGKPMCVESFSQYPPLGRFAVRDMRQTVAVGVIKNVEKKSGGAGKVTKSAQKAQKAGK

Experiments:
[1] = target: T1, eEF1Bα (NIH-3T3) (mouse (endogenous in NIH-3T3)) (UniProt O70251); experiment: proximity ligation; Duolink in situ PLA on NIH-3T3 cells stably expressing V5-tagged eEF1A1 or V5-tagged eEF1A2; antibody to an eEF1B subunit paired with V5 antibody or TK1 antibody; incubations at 37°C in a humidity chamber
T1 sequence: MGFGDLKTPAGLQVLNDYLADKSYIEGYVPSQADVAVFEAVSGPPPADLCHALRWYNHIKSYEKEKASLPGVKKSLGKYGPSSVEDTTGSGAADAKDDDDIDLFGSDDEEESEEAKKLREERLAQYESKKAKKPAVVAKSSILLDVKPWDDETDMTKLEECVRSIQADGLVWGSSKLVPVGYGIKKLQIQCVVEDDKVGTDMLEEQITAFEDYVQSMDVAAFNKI

[2] = target: T2, eEF1Bδ (NIH-3T3) (mouse (endogenous in NIH-3T3)) (UniProt P57776); experiment: as above
T2 sequence: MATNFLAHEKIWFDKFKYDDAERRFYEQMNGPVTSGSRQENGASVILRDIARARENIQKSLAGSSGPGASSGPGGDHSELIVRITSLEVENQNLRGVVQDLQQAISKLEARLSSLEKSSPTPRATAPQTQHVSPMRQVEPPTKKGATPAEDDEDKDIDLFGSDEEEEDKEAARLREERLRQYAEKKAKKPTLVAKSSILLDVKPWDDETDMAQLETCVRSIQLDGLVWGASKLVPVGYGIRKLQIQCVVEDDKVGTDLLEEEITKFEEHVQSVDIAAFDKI

[3] = target: eEF1Bδ (human (endogenous in HeLa)) (UniProt P29692); experiment: proximity ligation; Duolink in situ PLA on HeLa cells, endogenous proteins; eEF1A2 antibody paired with an antibody to an eEF1B subunit or to TK1; incubations at 37°C in a humidity chamber
[4] = target: T3, eEF1Bα (human (endogenous in HeLa)) (UniProt P24534); experiment: as above
T3 sequence: T1 sequence with T8S, G43S, S75A, S82A, S83D, A93T, A95S, K117R, V136L, T156A

[5] = target: T4, TK1 (human (endogenous in HeLa)) (UniProt P04183); experiment: as above
T4 sequence: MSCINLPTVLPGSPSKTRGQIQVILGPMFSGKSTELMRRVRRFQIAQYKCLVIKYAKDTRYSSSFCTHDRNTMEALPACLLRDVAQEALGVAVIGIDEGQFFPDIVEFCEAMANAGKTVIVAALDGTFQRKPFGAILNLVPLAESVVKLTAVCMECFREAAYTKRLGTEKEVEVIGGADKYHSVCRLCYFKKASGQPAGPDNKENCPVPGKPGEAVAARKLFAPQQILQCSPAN

[6] = target: T5, TK1 (NIH-3T3) (mouse (endogenous in NIH-3T3)) (UniProt P04184); experiment: proximity ligation; Duolink in situ PLA on NIH-3T3 cells stably expressing V5-tagged eEF1A1 or V5-tagged eEF1A2; antibody to an eEF1B subunit paired with V5 antibody or TK1 antibody; incubations at 37°C in a humidity chamber
T5 sequence: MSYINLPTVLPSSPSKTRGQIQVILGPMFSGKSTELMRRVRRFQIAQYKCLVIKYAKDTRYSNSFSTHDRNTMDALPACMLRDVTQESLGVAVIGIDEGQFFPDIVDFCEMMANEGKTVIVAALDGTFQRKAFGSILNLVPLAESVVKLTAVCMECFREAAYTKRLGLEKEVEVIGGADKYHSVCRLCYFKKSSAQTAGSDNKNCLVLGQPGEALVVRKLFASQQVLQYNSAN

V5-tagged eEF1A1 (from UniProt P68104 1-462)
binding [1]: binds | binding [2]: binds

V5-tagged eEF1A2 (from UniProt Q05639 1-463)
binding [1]: binds | binding [2]: binds

eEF1A2 (from UniProt Q05639 1-463)
binding [3]: binds | binding [4]: binds | binding [5]: no binding

B1: eEF1Bδ (NIH-3T3) (protein, UniProt P57776 1-281)
chain: T2 sequence
binding [6]: no binding
